Measured values: the supplement of paper PMC8728848
Some of the results follow.

Tests used:
Assay in all cases: glycan array binding signal (z-score within array); higher = stronger binding
Conditions in all cases: glycan notation: IUPAC condensed, linker removed
[1] = target: Neu5Ac(a2-3)Gal(b1-4)GlcNAc(b1-3)[Neu5Ac(a2-3)Gal(b1-4)GlcNAc(b1-6)]GalNAc
In short: (§1)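 Columns mapping to the same glycan were averaged after glycan names were converted to IUPAC-condensed notation. The data come from 3228 arrays in the Consortium for Functional Glycomics database, limited to those with an available protein sequence. Binding is reported as a within-array Z-score averaged across arrays of one protein sequence and across linkers.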

[2] = target: Neu5Ac(a2-3)Gal(b1-4)GlcNAc(b1-6)GalNAc
In short: as §1

[3] = target: Neu5Ac(a2-3)Gal(b1-4)GlcNAc(b1-6)[Gal(b1-3)]GalNAc
In short: as §1

[4] = target: Neu5Ac(a2-3)Gal(b1-4)GlcNAc(b1-6)[Neu5Ac(a2-3)Gal(b1-3)]GalNAc
In short: as §1

[5] = target: Neu5Ac(a2-3)Gal(b1-4)GlcNAc6S
In short: as §1

[6] = target: Neu5Ac(a2-3)Gal(b1-4)[Fuc(a1-3)]GlcNAc
In short: as §1

[7] = target: Neu5Ac(a2-3)Gal(b1-4)[Fuc(a1-3)]GlcNAc(b1-2)Man
In short: as §1

[8] = target: Neu5Ac(a2-3)Gal(b1-4)[Fuc(a1-3)]GlcNAc(b1-3)Gal
In short: as §1

[9] = target: Neu5Ac(a2-3)Gal(b1-4)[Fuc(a1-3)]GlcNAc(b1-3)Gal(b1-4)GlcNAc
In short: as §1

[10] = target: Neu5Ac(a2-3)Gal(b1-4)[Fuc(a1-3)]GlcNAc(b1-3)Gal(b1-4)[Fuc(a1-3)]GlcNAc(b1-3)Gal(b1-4)[Fuc(a1-3)]GlcNAc
In short: as §1

[11] = target: Neu5Ac(a2-3)Gal(b1-4)[Fuc(a1-3)]GlcNAc(b1-3)GalNAc
In short: as §1

[12] = target: Neu5Ac(a2-3)Gal(b1-4)[Fuc(a1-3)]GlcNAc(b1-6)[Gal(b1-3)]GalNAc
In short: as §1

[13] = target: Neu5Ac(a2-3)Gal(b1-4)[Fuc(a1-3)]GlcNAc(b1-6)[Neu5Ac(a2-3)Gal(b1-3)]GalNAc
In short: as §1

[14] = target: Neu5Ac(a2-3)Gal(b1-4)[Fuc(a1-3)]GlcNAc6S
In short: as §1

[15] = target: Neu5Ac(a2-3)Gal6S(b1-4)GlcNAc
In short: as §1

[16] = target: Neu5Ac(a2-3)Gal6S(b1-4)[Fuc(a1-3)]GlcNAc
In short: as §1

[17] = target: Neu5Ac(a2-3)GalNAc
In short: as §1

[18] = target: Neu5Ac(a2-3)GalNAc(b1-4)GlcNAc
In short: as §1

[19] = target: Neu5Ac(a2-3)[GalNAc(b1-4)]Gal(b1-4)Glc
In short: as §1

[20] = target: Neu5Ac(a2-3)[GalNAc(b1-4)]Gal(b1-4)GlcNAc
In short: as §1

[21] = target: Neu5Ac(a2-3)[GalNAc(b1-4)]Gal(b1-4)GlcNAc(b1-3)GalNAc
In short: as §1

[22] = target: Neu5Ac(a2-3)[Neu5Ac(a2-6)]GalNAc
In short: as §1

[23] = target: Neu5Ac(a2-6)Gal
In short: as §1

[24] = target: Neu5Ac(a2-6)Gal(b1-3)GlcNAc(b1-3)[Gal(b1-4)GlcNAc(b1-6)]Gal(b1-4)Glc
In short: as §1

[25] = target: Neu5Ac(a2-6)Gal(b1-4)Glc
In short: as §1

[26] = target: Neu5Ac(a2-6)Gal(b1-4)GlcNAc
In short: as §1

[27] = target: Neu5Ac(a2-6)Gal(b1-4)GlcNAc(b1-2)Man
In short: as §1

[28] = target: Neu5Ac(a2-6)Gal(b1-4)GlcNAc(b1-2)Man(a1-3)Man(b1-4)GlcNAc(b1-4)GlcNAc
In short: as §1

[29] = target: Neu5Ac(a2-6)Gal(b1-4)GlcNAc(b1-2)Man(a1-3)[Gal(b1-4)GlcNAc(b1-2)Man(a1-6)]Man(b1-4)GlcNAc(b1-4)GlcNAc
In short: as §1

[30] = target: Neu5Ac(a2-6)Gal(b1-4)GlcNAc(b1-2)Man(a1-3)[GlcNAc(b1-2)Man(a1-6)]Man(b1-4)GlcNAc(b1-4)GlcNAc
In short: as §1

[31] = target: Neu5Ac(a2-6)Gal(b1-4)GlcNAc(b1-2)Man(a1-3)[GlcNAc(b1-4)][Neu5Ac(a2-6)Gal(b1-4)GlcNAc(b1-2)Man(a1-6)]Man(b1-4)GlcNAc(b1-4)GlcNAc
In short: as §1

[32] = target: Neu5Ac(a2-6)Gal(b1-4)GlcNAc(b1-2)Man(a1-3)[Man(a1-6)]Man(b1-4)GlcNAc(b1-4)GlcNAc
In short: as §1

[33] = target: Neu5Ac(a2-6)Gal(b1-4)GlcNAc(b1-2)Man(a1-3)[Neu5Ac(a2-3)Gal(b1-4)GlcNAc(b1-2)Man(a1-6)]Man(b1-4)GlcNAc(b1-4)GlcNAc
In short: as §1

[34] = target: Neu5Ac(a2-6)Gal(b1-4)GlcNAc(b1-2)Man(a1-3)[Neu5Ac(a2-6)Gal(b1-4)GlcNAc(b1-2)Man(a1-6)]Man(b1-4)GlcNAc(b1-4)GlcNAc
In short: as §1

[35] = target: Neu5Ac(a2-6)Gal(b1-4)GlcNAc(b1-2)Man(a1-3)[Neu5Ac(a2-6)Gal(b1-4)GlcNAc(b1-2)Man(a1-6)]Man(b1-4)GlcNAc(b1-4)[Fuc(a1-6)]GlcNAc
In short: as §1

[36] = target: Neu5Ac(a2-6)Gal(b1-4)GlcNAc(b1-2)Man(a1-6)Man(b1-4)GlcNAc(b1-4)GlcNAc
In short: as §1

[37] = target: Neu5Ac(a2-6)Gal(b1-4)GlcNAc(b1-2)Man(a1-6)[Gal(b1-4)GlcNAc(b1-2)Man(a1-3)]Man(b1-4)GlcNAc(b1-4)GlcNAc
In short: as §1

[38] = target: Neu5Ac(a2-6)Gal(b1-4)GlcNAc(b1-2)Man(a1-6)[GlcNAc(b1-2)Man(a1-3)]Man(b1-4)GlcNAc(b1-4)GlcNAc
In short: as §1

[39] = target: Neu5Ac(a2-6)Gal(b1-4)GlcNAc(b1-2)Man(a1-6)[Man(a1-3)]Man(b1-4)GlcNAc(b1-4)GlcNAc
In short: as §1

[40] = target: Neu5Ac(a2-6)Gal(b1-4)GlcNAc(b1-2)[Neu5Ac(a2-6)Gal(b1-4)GlcNAc(b1-4)]Man(a1-3)[GlcNAc(b1-4)][Neu5Ac(a2-6)Gal(b1-4)GlcNAc(b1-2)[Neu5Ac(a2-6)Gal(b1-4)GlcNAc(b1-6)]Man(a1-6)]Man(b1-4)GlcNAc(b1-4)GlcNAc
In short: as §1

[41] = target: Neu5Ac(a2-6)Gal(b1-4)GlcNAc(b1-2)[Neu5Ac(a2-6)Gal(b1-4)GlcNAc(b1-4)]Man(a1-3)[GlcNAc(b1-4)][Neu5Ac(a2-6)Gal(b1-4)GlcNAc(b1-4)Man(a1-6)]Man(b1-4)GlcNAc(b1-4)GlcNAc
In short: as §1

[42] = target: Neu5Ac(a2-6)Gal(b1-4)GlcNAc(b1-2)[Neu5Ac(a2-6)Gal(b1-4)GlcNAc(b1-6)]Man(a1-6)[Neu5Ac(a2-6)Gal(b1-4)GlcNAc(b1-2)Man(a1-3)][GlcNAc(b1-4)]Man(b1-4)GlcNAc(b1-4)GlcNAc
In short: as §1

[43] = target: Neu5Ac(a2-6)Gal(b1-4)GlcNAc(b1-3)Gal(b1-3)GlcNAc
In short: as §1

[44] = target: Neu5Ac(a2-6)Gal(b1-4)GlcNAc(b1-3)Gal(b1-4)GlcNAc
In short: as §1

[45] = target: Neu5Ac(a2-6)Gal(b1-4)GlcNAc(b1-3)Gal(b1-4)GlcNAc(b1-2)Man(a1-3)[Neu5Ac(a2-6)Gal(b1-4)GlcNAc(b1-3)Gal(b1-4)GlcNAc(b1-2)Man(a1-6)]GalNAc
In short: as §1

B1: DC-ASGPR-short (Homo sapiens) (protein)
chain: MTRTYENFQYLENKVKVQGFKNGPLPLQSLLQRLRSGPCHLLLSLGLGLLLLVIICVVGFQNSKFQRDLVTLRTDFSNFTSNTVAEIQALTSQGSSLEETIASLKAEVEGFKQERQAVHSEMLLRVQQLVQDLKKLTCQVATLNNNASTEGTCCPVNWVEHQDSCYWFSHSGMSWAEAEKYCQLKNAHLVVINSREEQNFVQKYLGSAYTWMGLSDPEGAWKWVDGTDYATGFQNWKPGQPDDWQGHGLGGGEDCAHFHPDGRWNDDVCQRPYHWVCEAGLGQTSQESH
glycan array binding signal (z-score) [1]: -0.367 | glycan array binding signal (z-score) [2]: 2.62 | glycan array binding signal (z-score) [3]: -0.283 | glycan array binding signal (z-score) [4]: -0.286 | glycan array binding signal (z-score) [5]: -0.283 | glycan array binding signal (z-score) [6]: -0.281 | glycan array binding signal (z-score) [7]: -0.238 | glycan array binding signal (z-score) [8]: -0.276 | glycan array binding signal (z-score) [9]: -0.253 | glycan array binding signal (z-score) [10]: -0.242 | glycan array binding signal (z-score) [11]: -0.07 | glycan array binding signal (z-score) [12]: -0.285 | glycan array binding signal (z-score) [13]: -0.248 | glycan array binding signal (z-score) [14]: -0.286 | glycan array binding signal (z-score) [15]: -0.27 | glycan array binding signal (z-score) [16]: -0.279 | glycan array binding signal (z-score) [17]: -0.155 | glycan array binding signal (z-score) [18]: -0.279 | glycan array binding signal (z-score) [19]: 0.286 | glycan array binding signal (z-score) [20]: 0.316 | glycan array binding signal (z-score) [21]: 0.702 | glycan array binding signal (z-score) [22]: -0.223 | glycan array binding signal (z-score) [23]: -0.275 | glycan array binding signal (z-score) [24]: -0.271 | glycan array binding signal (z-score) [25]: -0.194 | glycan array binding signal (z-score) [26]: -0.283 | glycan array binding signal (z-score) [27]: -0.283 | glycan array binding signal (z-score) [28]: -0.284 | glycan array binding signal (z-score) [29]: -0.274 | glycan array binding signal (z-score) [30]: -0.242 | glycan array binding signal (z-score) [31]: -0.279 | glycan array binding signal (z-score) [32]: -0.279 | glycan array binding signal (z-score) [33]: -0.282 | glycan array binding signal (z-score) [34]: -0.184 | glycan array binding signal (z-score) [35]: -0.291 | glycan array binding signal (z-score) [36]: -0.274 | glycan array binding signal (z-score) [37]: -0.287 | glycan array binding signal (z-score) [38]: -0.284 | glycan array binding signal (z-score) [39]: -0.288 | glycan array binding signal (z-score) [40]: -1.26 | glycan array binding signal (z-score) [41]: -0.34 | glycan array binding signal (z-score) [42]: -0.272 | glycan array binding signal (z-score) [43]: -0.281 | glycan array binding signal (z-score) [44]: -0.293 | glycan array binding signal (z-score) [45]: -0.001
